# This is one part of the list.
# How the values were obtained:
# Assay in all cases: glycan array binding signal (z-score within array); higher = stronger binding
# Details in all cases: glycan notation: IUPAC condensed, linker removed
# Gal(b1-4)Glc6S = biological target: Gal(b1-4)Glc6S
# How it was run: (§1)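 From the Consortium for Functional Glycomics database, 3228 arrays were curated, keeping only those whose protein sequence was available. Binding is given as a within-array Z-score averaged across arrays sharing a protein sequence and across linkers. Negative Z-scores can be read as non-binding.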
# Gal(b1-4)GlcNAc = biological target: Gal(b1-4)GlcNAc
# How it was run: as §1
# [1] = biological target: Gal(b1-4)GlcNAc(a1-6)Gal(b1-4)GlcNAc
# How it was run: as §1
# [2] = biological target: Gal(b1-4)GlcNAc(b1-2)Man(a1-3)Man(b1-4)GlcNAc(b1-4)GlcNAc
# How it was run: as §1
# [3] = biological target: Gal(b1-4)GlcNAc(b1-2)Man(a1-3)[Gal(b1-4)GlcNAc(b1-2)Man(a1-6)]Man(b1-4)GlcNAc(b1-4)GlcNAc
# How it was run: as §1
# [4] = biological target: Gal(b1-4)GlcNAc(b1-2)Man(a1-3)[Gal(b1-4)GlcNAc(b1-2)Man(a1-6)]Man(b1-4)GlcNAc(b1-4)[Fuc(a1-6)]GlcNAc
# How it was run: as §1
# [5] = biological target: Gal(b1-4)GlcNAc(b1-2)Man(a1-3)[GlcNAc(b1-2)Man(a1-6)]Man(b1-4)GlcNAc(b1-4)GlcNAc
# How it was run: as §1
# [6] = biological target: Gal(b1-4)GlcNAc(b1-2)Man(a1-3)[Man(a1-6)]Man(b1-4)GlcNAc(b1-4)GlcNAc
# How it was run: as §1
# [7] = biological target: Gal(b1-4)GlcNAc(b1-2)Man(a1-6)Man(b1-4)GlcNAc(b1-4)GlcNAc
# How it was run: as §1
# [8] = biological target: Gal(b1-4)GlcNAc(b1-2)Man(a1-6)[GlcNAc(b1-2)Man(a1-3)]Man(b1-4)GlcNAc(b1-4)GlcNAc
# How it was run: as §1
# [9] = biological target: Gal(b1-4)GlcNAc(b1-2)Man(a1-6)[Man(a1-3)]Man(b1-4)GlcNAc(b1-4)GlcNAc
# How it was run: as §1
# [10] = biological target: Gal(b1-4)GlcNAc(b1-2)[Gal(b1-4)GlcNAc(b1-4)]Man(a1-3)[Gal(b1-4)GlcNAc(b1-2)Man(a1-6)]Man(b1-4)GlcNAc(b1-4)GlcNAc
# How it was run: as §1
# [11] = biological target: Gal(b1-4)GlcNAc(b1-2)[Gal(b1-4)GlcNAc(b1-4)]Man(a1-3)[Gal(b1-4)GlcNAc(b1-2)[Gal(b1-4)GlcNAc(b1-6)]Man(a1-6)]Man(b1-4)GlcNAc(b1-4)GlcNAc
# How it was run: as §1
# [12] = biological target: Gal(b1-4)GlcNAc(b1-3)Gal(b1-3)GlcNAc
# How it was run: as §1
# [13] = biological target: Gal(b1-4)GlcNAc(b1-3)Gal(b1-4)Glc
# How it was run: as §1
# [14] = biological target: Gal(b1-4)GlcNAc(b1-3)Gal(b1-4)GlcNAc
# How it was run: as §1
# [15] = biological target: Gal(b1-4)GlcNAc(b1-3)Gal(b1-4)GlcNAc(b1-3)Gal(b1-4)GlcNAc
# How it was run: as §1
# [16] = biological target: Gal(b1-4)GlcNAc(b1-3)Gal(b1-4)[Fuc(a1-3)]GlcNAc(b1-3)Gal(b1-4)[Fuc(a1-3)]GlcNAc
# How it was run: as §1
# [17] = biological target: Gal(b1-4)GlcNAc(b1-3)GalNAc
# How it was run: as §1
# [18] = biological target: Gal(b1-4)GlcNAc(b1-3)[Gal(b1-4)GlcNAc(b1-6)]Gal(b1-4)GlcNAc
# How it was run: as §1
# [19] = biological target: Gal(b1-4)GlcNAc(b1-3)[Gal(b1-4)GlcNAc(b1-6)]GalNAc
# How it was run: as §1
# [20] = biological target: Gal(b1-4)GlcNAc(b1-3)[GlcNAc(b1-6)]Gal(b1-4)GlcNAc
# How it was run: as §1
# [21] = biological target: Gal(b1-4)GlcNAc(b1-6)Gal(b1-4)GlcNAc
# How it was run: as §1
# [22] = biological target: Gal(b1-4)GlcNAc(b1-6)Gal(b1-4)GlcNAc(b1-6)GalNAc
# How it was run: as §1
# [23] = biological target: Gal(b1-4)GlcNAc(b1-6)GalNAc
# How it was run: as §1
# [24] = biological target: Gal(b1-4)GlcNAc(b1-6)[Gal(b1-3)]GalNAc
# How it was run: as §1
# Gal3S(b1-3)GalNAc = biological target: Gal3S(b1-3)GalNAc
# How it was run: as §1
# Gal3S(b1-3)GlcNAc = biological target: Gal3S(b1-3)GlcNAc
# How it was run: as §1
# [25] = biological target: Gal3S(b1-3)[Fuc(a1-4)]GlcNAc
# How it was run: as §1
# Gal3S(b1-4)Glc = biological target: Gal3S(b1-4)Glc
# How it was run: as §1
# Gal3S(b1-4)Glc6S = biological target: Gal3S(b1-4)Glc6S
# How it was run: as §1
# Gal3S(b1-4)GlcNAc = biological target: Gal3S(b1-4)GlcNAc
# How it was run: as §1
# Gal3S(b1-4)GlcNAc6S = biological target: Gal3S(b1-4)GlcNAc6S
# How it was run: as §1
# [26] = biological target: Gal3S(b1-4)[Fuc(a1-3)]Glc
# How it was run: as §1
# [27] = biological target: Gal3S(b1-4)[Fuc(a1-3)]Glc6S
# How it was run: as §1
# Gal3S4S(b1-4)GlcNAc = biological target: Gal3S4S(b1-4)GlcNAc
# How it was run: as §1
# Gal3S6S(b1-4)GlcNAc = biological target: Gal3S6S(b1-4)GlcNAc
# How it was run: as §1
# Gal3S6S(b1-4)GlcNAc6S = biological target: Gal3S6S(b1-4)GlcNAc6S
# How it was run: as §1
# Gal4S(b1-4)GlcNAc = biological target: Gal4S(b1-4)GlcNAc
# How it was run: as §1
# Gal4S6S(b1-4)GlcNAc = biological target: Gal4S6S(b1-4)GlcNAc
# How it was run: as §1
# Gal6S(b1-4)Glc = biological target: Gal6S(b1-4)Glc
# How it was run: as §1
# Gal6S(b1-4)Glc6S = biological target: Gal6S(b1-4)Glc6S
# How it was run: as §1
# Gal6S(b1-4)GlcNAc = biological target: Gal6S(b1-4)GlcNAc
# How it was run: as §1
# Gal6S(b1-4)GlcNAc6S = biological target: Gal6S(b1-4)GlcNAc6S
# How it was run: as §1
# GalNAc(a1-3)Gal = biological target: GalNAc(a1-3)Gal
# How it was run: as §1
binder,measurement,setting,value
"Tachylectin-2 (Tachypleus tridentatus), TAL2_TACTR (protein) VGGESMLRGVYQDKFYQGTYPQNKNDNWLARATLIGKGGWSNFKFLFLSPGGELYGVLNDKIYKGTPPTHDNDNWMGRAKKIGNGGWNQFQFLFFDPNGYLYAVSKDKLYKASPPQSDTDNWIARATEIGSGGWSGFKFLFFHPNGYLYAVHGQQFYKALPPVSNQDNWLARATKIGQGGWDTFKFLFFSSVGTLFGVQGGKFYEDYPPSYAHDNWLARAKLIGNGGWDDFRFLFF",glycan array binding signal (z-score),Gal(b1-4)Glc6S,-0.341
same,glycan array binding signal (z-score),Gal(b1-4)GlcNAc,-0.262
same,glycan array binding signal (z-score),[1],-0.207
same,glycan array binding signal (z-score),[2],-0.295
same,glycan array binding signal (z-score),[3],-0.201
same,glycan array binding signal (z-score),[4],-0.294
same,glycan array binding signal (z-score),[5],-0.295
same,glycan array binding signal (z-score),[6],-0.294
same,glycan array binding signal (z-score),[7],-0.292
same,glycan array binding signal (z-score),[8],-0.291
same,glycan array binding signal (z-score),[9],-0.294
same,glycan array binding signal (z-score),[10],-0.293
same,glycan array binding signal (z-score),[11],-0.294
same,glycan array binding signal (z-score),[12],-0.348
same,glycan array binding signal (z-score),[13],-0.209
same,glycan array binding signal (z-score),[14],-0.367
same,glycan array binding signal (z-score),[15],-0.338
same,glycan array binding signal (z-score),[16],-0.449
same,glycan array binding signal (z-score),[17],-0.26
same,glycan array binding signal (z-score),[18],-0.43
same,glycan array binding signal (z-score),[19],-0.291
same,glycan array binding signal (z-score),[20],-0.309
same,glycan array binding signal (z-score),[21],-0.323
same,glycan array binding signal (z-score),[22],-0.469
same,glycan array binding signal (z-score),[23],3.79
same,glycan array binding signal (z-score),[24],-0.273
same,glycan array binding signal (z-score),Gal3S(b1-3)GalNAc,-0.323
same,glycan array binding signal (z-score),Gal3S(b1-3)GlcNAc,-0.354
same,glycan array binding signal (z-score),[25],0.014
same,glycan array binding signal (z-score),Gal3S(b1-4)Glc,-0.332
same,glycan array binding signal (z-score),Gal3S(b1-4)Glc6S,-0.346
same,glycan array binding signal (z-score),Gal3S(b1-4)GlcNAc,-0.359
same,glycan array binding signal (z-score),Gal3S(b1-4)GlcNAc6S,-0.245
same,glycan array binding signal (z-score),[26],-0.39
same,glycan array binding signal (z-score),[27],-0.29
same,glycan array binding signal (z-score),Gal3S4S(b1-4)GlcNAc,-0.318
same,glycan array binding signal (z-score),Gal3S6S(b1-4)GlcNAc,-0.17
same,glycan array binding signal (z-score),Gal3S6S(b1-4)GlcNAc6S,-0.393
same,glycan array binding signal (z-score),Gal4S(b1-4)GlcNAc,-0.344
same,glycan array binding signal (z-score),Gal4S6S(b1-4)GlcNAc,-0.23
same,glycan array binding signal (z-score),Gal6S(b1-4)Glc,-0.268
same,glycan array binding signal (z-score),Gal6S(b1-4)Glc6S,-0.353
same,glycan array binding signal (z-score),Gal6S(b1-4)GlcNAc,-0.203
same,glycan array binding signal (z-score),Gal6S(b1-4)GlcNAc6S,-0.339
same,glycan array binding signal (z-score),GalNAc(a1-3)Gal,3.15

# Source: the supplement of paper PMC8728848
